# About 2,200 (0.56%) of roughly 390,000 compounds were called active. The inconclusive results got no clear call from the source; some entries with a clear call stand among them for comparison. Calls follow the shape of the dose curve; as a rule, active = well fitted inhibition curve with a large enough effect; inconclusive = small, poorly fitted or top-dose-only effect; inactive = no such curve, though single readings can be large or run the other way. Where the call is inconclusive, the potency comes from a doubtful curve fit.
# Target: Chromobox protein homolog 1 (Homo sapiens) (UniProt P83916)
# Sequence of UniProt P83916 (P83916 whole entry, looked up): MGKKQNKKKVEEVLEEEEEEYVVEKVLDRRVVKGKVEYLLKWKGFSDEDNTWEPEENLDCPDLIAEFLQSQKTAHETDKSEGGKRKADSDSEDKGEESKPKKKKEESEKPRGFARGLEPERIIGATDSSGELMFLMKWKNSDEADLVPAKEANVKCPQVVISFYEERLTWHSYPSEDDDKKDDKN
# Test: HTS for Inhibitors of HP1-beta Chromodomain Interactions with Methylated Histone Tails; also: nearly all actives have a fitted effect of over 70% in size
# Settings: AlphaScreen HP1-beta / biotin-H3K9me3 peptide binding; series mostly up to 114 µM; activity change, negative = inhibition: at the top concentration
# How it was run: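 HP1-beta protein (50 nM final) preincubated 30 min at room temperature with biotinylated H3(1-18)K9me3 peptide (50 nM) in PBS pH 7.4, 0.01% Tween-20, then compound added for 30 min. AlphaScreen streptavidin donor/nickel chelate acceptor beads (10 ug/mL final), 30 min dark, luminescence read.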
# Potency is read from the fitted curve at half-maximal effect; tags tell the direction and shape of the fitted curve.
SMILES,Potency,"activity change, negative = inhibition"
CN1\C(=C/C=C/C=C/C=[N+](C)C)C(C)(C)c2ccccc21,"inconclusive: 10 µM [inhibitor, full curve, poor fit]",–
O=[N+]([O-])c1ccc(-c2csc(Nc3ccccc3)[n+]2Cc2ccccc2)cc1,active: 15.8 µM,–
O=C1CCCC(=O)C1C(=O)C1CCN(S(=O)(=O)c2ccccc2)CC1,"inconclusive: 79.4 µM [inhibitor, single point]",–
COc1cc(/C=N/NC(=S)Nc2cccc(C(=O)O)c2)ccc1O,"inconclusive: 39.8 µM [inhibitor, single point]",–
COc1ccc(OCc2cc(C(=O)NCCN3CCCc4ccccc43)no2)c(Cl)c1,"inconclusive: 44.7 µM [inhibitor, partial curve]",–
Cc1sc(-c2cc3c([nH]c2=O)CC(c2ccccc2)CC3=O)nc1-c1ccc(Cl)cc1 (stereo unspecified),–,inactive: 21.2%
O=C(c1ccc2c(c1)OCO2)N1CCN(S(=O)(=O)c2ccc(Cl)cc2)CC1,–,inactive: 44%
Cn1c(=O)oc2cc(S(=O)(=O)N3CCC(C(=O)N4CCN(c5ccccc5F)CC4)CC3)ccc21,–,inactive: 33.1%
Cc1oc(=O)cc(OCc2ccccc2)c1C,–,inactive: 66.4%
O=S(=O)(c1ccc(Cl)s1)N1CCN(C/C=C/c2ccccc2)CC1,"inconclusive: 39.8 µM [inhibitor, partial curve]",–
COc1cc(OC)c(NC2=C(c3ccc(C(F)(F)F)cc3)C(=O)c3ccccc32)cc1Cl,"inconclusive: 22.4 µM [inhibitor, full curve]",–
S=C(NCc1ccccc1)N1CCN(c2cccc(Cl)c2)CC1,"inconclusive: 89.1 µM [inhibitor, single point]",–
OCCCn1c(-c2ccc(F)cc2)csc1=Nc1ccc(F)cc1,"inconclusive: 17.8 µM [inhibitor, full curve]",–
CC(C)OCCCNCC(O)c1ccccc1 (stereo unspecified),"inconclusive: 11.2 µM [inhibitor, partial curve, poor fit]",–
COc1ccc(OC)c(C2=NNC(=NCc3ccc4c(c3)OCO4)SC2)c1,"inconclusive: 28.2 µM [inhibitor, partial curve, poor fit]",–
Cc1ccccc1-c1cc(-c2ccccc2O)n[nH]1,"inconclusive: 6.31 µM [inhibitor, single point]",–
O=C(CSc1nccn1C1CCCC1)Nc1cc(C(F)(F)F)ccc1Cl,"inconclusive: 31.6 µM [inhibitor, partial curve]",–
COc1cc2c3c(c1)C(C)=CC(C)(C)N3C(=O)C2=O,"inconclusive: 39.8 µM [inhibitor, partial curve]",–
CCOc1ccccc1NC(=O)C(=O)/C=C(\O)c1cc(OC)ccc1OC,–,inactive: -15.2%
COc1ccc(-c2nnc(SCC(=O)NC(C)c3ccccc3)o2)cc1OC (stereo unspecified),"inconclusive: 25.1 µM [inhibitor, single point]",–
Cc1cc(NCCCCCCCNc2cc(C)nc3cc([N+](=O)[O-])ccc23)c2ccc([N+](=O)[O-])cc2n1,active: 70.8 µM,–
O=C(OCC(=O)N1CCCCCC1)c1ccc(Cl)c(S(=O)(=O)N2CCCC2)c1,"inconclusive: 14.1 µM [inhibitor, full curve]",–
CCOc1ccc(OCC)c(NC(=O)c2cc3ccccn3n2)c1,"inconclusive: 79.4 µM [inhibitor, single point]",–

SMILES,Potency,"activity change, negative = inhibition"
CC(=O)C1=C(c2ccccc2)NC(=S)NC1c1cc(Cl)c(OC(C)C)c(Cl)c1 (stereo unspecified),"inconclusive: 35.5 µM [inhibitor, full curve]",–
CCCCNC(=S)Nc1ccc(Oc2ccccc2)cc1,–,inactive: -13%
O=C(Nc1sc2c(c1C(=O)Nc1ccccc1)CCC2)c1ccc(Br)cc1,–,inactive: 106%
CN(C)c1ccc(Nc2nc(N)c3ccccc3n2)cc1,active: 31.6 µM,–
Cc1ccc(S(=O)(=O)N2CCC[C@H]2C(=O)OCC(=O)c2ccc3c(c2)NC(=O)CO3)cc1,–,inactive: 2.7%
O=C(COC(=O)c1c2c(nc3ccccc13)/C(=C\c1ccco1)CC2)NC1CCCC1,"inconclusive: 44.7 µM [inhibitor, partial curve, poor fit]",–
Cc1ccccc1OCC(=O)NCC(c1ccc(Cl)cc1)N1CCCCC1 (stereo unspecified),–,inactive: 14.8%
Cc1cccc(C)c1C(OCCN(C)C)C1CCCCC1 (stereo unspecified),"inconclusive: 28.2 µM [inhibitor, single point]",–
CCN(CC)S(=O)(=O)c1ccc(C)c(NC(=O)CNc2cccc(S(=O)(=O)N3CCCC3)c2)c1,–,inactive: 4.54%
COc1cc(C2N(c3ccccc3)CCN2c2ccccc2)ccc1OC(C)=O,–,inactive: 15.8%
Cc1ccc(CNC(=O)Cc2csc3ccccc23)cc1,–,inactive: 40.4%
COc1ccc(NC(=S)N(CCN(C)C)C(C)c2ccco2)cc1 (stereo unspecified),–,inactive: 13.7%
COc1ccc(C(=O)Nc2ccc(N3CCCCCC3)cc2)cc1S(=O)(=O)N1CCOCC1,"inconclusive: 15.8 µM [inhibitor, partial curve, poor fit]",–
O=C(c1ccco1)N1CCN(Cc2cccc3ccccc23)CC1,active: 22.4 µM,–
S=C(Nc1ccc(Cl)cc1Cl)NC1CCN(Cc2ccccc2)CC1,"inconclusive: 39.8 µM [inhibitor, single point]",–
Cc1ccc(NC(=O)/C=C/c2ccco2)cc1F,"inconclusive: 56.2 µM [inhibitor, partial curve, poor fit]",–
Cc1nnc(SCC(=O)NC(=O)NC(C)(C)C)n1N,"inconclusive: 39.8 µM [inhibitor, single point]",–
S=c1[nH]ncn1/N=C/c1cccc(Oc2ccccc2)c1,"inconclusive: 28.2 µM [inhibitor, partial curve]",–
COc1ccccc1C(=O)N1CCN(Cc2cccnc2)CC1,"inconclusive: 15.8 µM [inhibitor, full curve]",–
Cc1ccc(SSc2cc(C)ccc2N)c(N)c1,active: 14.1 µM,–
O=[N+]([O-])c1cc(C(F)(F)F)ccc1NCCCCNS(=O)(=O)c1ccc(Cl)cc1,"inconclusive: 39.8 µM [inhibitor, partial curve]",–
COc1ccc(/C=N/Nc2ccc([N+](=O)[O-])cc2)cc1Cn1cc([N+](=O)[O-])cn1,–,inactive: 41.7%
FC(F)(F)c1cc(Nc2nc3ccccc3c3nncn23)ccc1Cl,–,inactive: 26.1%
